{
  "source": "PubChem BioAssay AID493208",
  "about": "(National Center for Advancing Translational Sciences (NCATS), 2011)",
  "note": "About 340 (0.77%) of roughly 44,000 compounds were called active. About 5% were inconclusive and are not listed. Calls come from the whole dose curve; as a rule, active = well fitted inhibition curve with a large enough effect; inconclusive = small, poorly fitted or top-dose-only effect; inactive = flat fitted curve, though single readings scatter. Some of the results follow.",
  "data": [
    {"experiment": "Acumen qHTS Assay for Inhibitors of the mTORC1 Signaling Pathway in MEF (Tsc2-/-, p53-/-) Cells: Sytravon;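 note: plate controls were DMSO for no effect and rapamycin for full effect; nearly all actives have a fitted effect of over 50% in size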", "settings": "phospho-rpS6 immunofluorescence/PI, 24 h; series mostly up to 38.3 µM; activity change, negative = inhibition: at the top concentration", "how_it_was_run": "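Cell-based qHTS: Tsc2-/- p53-/- MEF, 24 h cpd, 37 °C; fix/perm, anti-phospho-S6 Alexa-488 + PI; Acumen 488 nm scan; pS6/PI ratio, % positive cells; rapamycin 7.5 nM = inhibition ref; PI count = viability.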", "values": [
      {"smiles": "CCN1CCN(C(=O)c2ccc3c(c2)N(Cc2ccccc2F)C(=O)c2ccccc2S3=O)CC1", "note": "(configuration not stated)", "activity change, negative = inhibition": "inactive: -4.13%"},
      {"smiles": "CCOc1ccccc1-c1nc(SCC(=O)c2ccc(OC)c(Br)c2)n[nH]1", "activity change, negative = inhibition": "inactive: -7.83%"},
      {"smiles": "Cc1ccc(Cl)cc1N1CCN(C(=O)CCCCCn2c(=O)[nH]c3ccccc3c2=O)CC1", "activity change, negative = inhibition": "inactive: -5.8%"},
      {"smiles": "CC(C)OC(=O)c1cccnc1SCC(=O)Nc1ccc(C(F)(F)F)cc1Cl", "activity change, negative = inhibition": "inactive: 9.43%"},
      {"smiles": "Cc1cnc(=O)[nH]c1SCC(=O)Nc1nc2ccccc2s1", "activity change, negative = inhibition": "inactive: -0.41%"},
      {"smiles": "Cc1ccc2oc(-c3cccc(NC(=O)c4sc5c([N+](=O)[O-])cccc5c4Cl)c3)nc2c1", "activity change, negative = inhibition": "inactive: 1.86%"},
      {"smiles": "O=c1c2sccc2n(Cc2cc(=O)n3ccccc3n2)c(=O)n1-c1cccc(C(F)(F)F)c1", "activity change, negative = inhibition": "inactive: -2.43%"},
      {"smiles": "CNS(=O)(=O)c1cc(-c2nnc(Nc3cc(C)ccc3C)c3ccccc23)ccc1C", "activity change, negative = inhibition": "inactive: 3.37%"},
      {"smiles": "Cc1ccc(-c2nnc(SCC(=O)NCc3ccccc3)nc2-c2ccc(C)cc2)cc1", "activity change, negative = inhibition": "inactive: 4.45%"},
      {"smiles": "CCOC(=O)c1cnc2ccccc2c1Nc1cccc(OC)c1", "activity change, negative = inhibition": "inactive: -0.234%"},
      {"smiles": "CCc1ccc(C(=O)NC(Cc2c[nH]c3ccccc23)C(=O)OCC(=O)c2ccc(Br)cc2)cc1", "note": "(configuration not stated)", "activity change, negative = inhibition": "inactive: 1.01%"},
      {"smiles": "Cc1cc2c(cc3c(SCC(=O)Nc4cccc(Cl)c4C)nnc(C)n32)o1", "activity change, negative = inhibition": "inactive: -9.67%"},
      {"smiles": "Cc1cc(-c2ccc(C)c(S(=O)(=O)Nc3cccc(C#N)c3)c2)on1", "activity change, negative = inhibition": "inactive: 10.3%"},
      {"smiles": "CCOc1ccc(CCNC(=O)c2c(C)oc3ncn(C)c(=O)c23)cc1", "activity change, negative = inhibition": "inactive: 1.03%"},
      {"smiles": "CC(C)CCOc1ccccc1Cn1c(=O)sc2ccccc21", "activity change, negative = inhibition": "inactive: -3.11%"},
      {"smiles": "Cc1ccccc1NS(=O)(=O)c1ccc2[nH]c3c(c2c1)CCCCC3", "activity change, negative = inhibition": "inactive: -17.4%"},
      {"smiles": "CCOC(=O)c1cc(-c2ccccc2)n(CCC(=O)Nc2nc3c(C)cccc3s2)c1C", "activity change, negative = inhibition": "inactive: -6.19%"},
      {"smiles": "CCc1ccc(-n2c(=O)c3c(C)c(C(=O)N(C)C)sc3n(Cc3ccccc3F)c2=O)cc1", "activity change, negative = inhibition": "inactive: -8.42%"},
      {"smiles": "CCOc1ccccc1CNC(=O)CCn1ccc2cc(S(=O)(=O)N3CCCCC3)ccc21", "activity change, negative = inhibition": "inactive: -8.93%"},
      {"smiles": "Cn1c(=O)c2sccc2n2c(CCCC(=O)Nc3ccc(Oc4ccc(Cl)cc4)cc3)nnc12", "activity change, negative = inhibition": "inactive: 0%"},
      {"smiles": "Cc1ccc(-c2cc3c(N4CCN(c5cc(C)ccc5C)CC4)nccn3n2)cc1", "activity change, negative = inhibition": "inactive: 2.24%"},
      {"smiles": "CC(=O)N1c2c(cc(Br)cc2S(=O)(=O)N2CCN(c3ccccc3)CC2)CC1C", "note": "(configuration not stated)", "activity change, negative = inhibition": "inactive: -12%"},
      {"smiles": "Cc1oc(-c2ccccc2Cl)nc1CS(=O)CC(=O)NCc1ccccc1Cl", "note": "(configuration not stated)", "activity change, negative = inhibition": "inactive: 1.27%"},
      {"smiles": "COc1ccc(NC(=O)CN2CCN(CC(=O)Nc3ccccc3F)CC2)cc1OC", "activity change, negative = inhibition": "inactive: -5.74%"},
      {"smiles": "O=S(=O)(c1ccc(F)cc1)N(Cc1nc(-c2ccccc2)no1)C1CCCCC1", "activity change, negative = inhibition": "inactive: -14%"},
      {"smiles": "CCOC(=O)c1ccc(NC(=O)COc2cccc3c(=O)n(C)ccc23)cc1", "activity change, negative = inhibition": "inactive: -6.62%"},
      {"smiles": "Cc1cc(Cl)ccc1OCC(=O)N1CCC(c2nc3ccccc3o2)CC1", "activity change, negative = inhibition": "inactive: -1.09%"},
      {"smiles": "Cc1ccc(CN(Cc2cccn2-c2nnc(N3CCCC3=O)s2)C(=O)Nc2ccc(F)cc2)cc1", "activity change, negative = inhibition": "inactive: -2.4%"},
      {"smiles": "O=C(COc1ccc(F)cc1)Nc1ccc(C(=O)OCc2cc(=O)n3nc(C4CC4)sc3n2)cc1", "activity change, negative = inhibition": "inactive: 0%"},
      {"smiles": "CCOc1ccc(NC(=O)N2CCC(c3ccc(C)cc3)C2)cc1", "note": "(configuration not stated)", "activity change, negative = inhibition": "inactive: 0.67%"},
      {"smiles": "Cc1ccc(-n2nc(C(=O)Nc3ccc(Br)cc3C)c(=O)n(C)c2=O)cc1", "activity change, negative = inhibition": "inactive: -4.52%"},
      {"smiles": "CCOc1ccc(NC(=O)c2sc3nc4c(cc3c2N)CN(Cc2ccccc2)CC4)cc1", "activity change, negative = inhibition": "inactive: -6.43%"},
      {"smiles": "COc1ccccc1CNC(=O)CSCc1nc(-c2ccc(OC)c(OC)c2)oc1C", "activity change, negative = inhibition": "inactive: -17.5%"},
      {"smiles": "COC(=O)c1ccc(NC(=O)C(=O)NCCc2csc(-c3ccc(C(F)(F)F)cc3)n2)cc1", "activity change, negative = inhibition": "inactive: -0.277%"},
      {"smiles": "CCCn1c2ccccc2c2cnn(CC(=O)NCc3ccc(OC)cc3)c(=O)c21", "activity change, negative = inhibition": "inactive: -1.89%"},
      {"smiles": "COc1ccc(OC)c(NC(=O)CCn2cccn2)c1", "activity change, negative = inhibition": "inactive: -3.95%"},
      {"smiles": "Cc1ccc(Cn2ccnc2SCC(=O)Nc2ccccc2C(F)(F)F)cc1", "activity change, negative = inhibition": "inactive: -7.26%"},
      {"smiles": "COc1ccccc1CNC(=O)C1CCN(S(=O)(=O)c2ccc3[nH]c(=O)ccc3c2)CC1", "activity change, negative = inhibition": "inactive: -3.63%"},
      {"smiles": "CCOc1ccc(NC(=O)Cn2c(=O)n(Cc3ccco3)c(=O)c3ccc(C(=O)NC4CCCC4)cc32)cc1", "activity change, negative = inhibition": "inactive: 0.296%"},
      {"smiles": "CCc1nn(CC(=O)N2CCN(c3cccc(Cl)c3)CC2)c(=O)c2cc3sccc3n12", "activity change, negative = inhibition": "inactive: 0.511%"},
      {"smiles": "Cc1ccccc1Cn1nc(C)c(NC(=O)c2cc(CC(C)C)on2)c1C", "activity change, negative = inhibition": "inactive: -8.82%"},
      {"smiles": "COc1cc(OC)c(NC(=O)Cn2c(SCc3ccccc3F)nc3cccnc32)cc1Cl", "activity change, negative = inhibition": "inactive: -4.82%"},
      {"smiles": "O=C1CC(c2cccc(Cl)c2Cl)c2cc3c(cc2N1)OCCO3", "note": "(configuration not stated)", "activity change, negative = inhibition": "inactive: -12.9%"},
      {"smiles": "CC(=O)c1ccc(N2CCN(c3nc4ccccc4c4nc(-c5cccc(C)c5)nn34)CC2)cc1", "activity change, negative = inhibition": "inactive: 1.38%"},
      {"smiles": "CCOc1ccc(NC(=O)Cn2nc(SC)c(S(=O)(=O)c3ccccc3)c2N)cc1", "activity change, negative = inhibition": "inactive: 10.6%"},
      {"smiles": "Cc1ccc(NC(=O)C2CCN(S(=O)(=O)c3ccc4c(c3)CCCN4C(=O)C3CCC3)CC2)cc1", "activity change, negative = inhibition": "inactive: -5.38%"},
      {"smiles": "O=C(NCCCN1CCCCC1)c1[nH]c2ccccc2c1Sc1ccc(Cl)cc1", "activity change, negative = inhibition": "inactive: -7.16%"}
    ]}
  ]
}
